Measured values: PubChem BioAssay (NCI)
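48-hour exposure; five concentrations; linearly interpolated endpoints. The concentration for 50% growth inhibition is given as GI50. Definition used: TGI = concentration required for complete inhibition of growth.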

The compounds below were run on NCI-H322M lung (assay: DTP human tumour cell line panel, 48 h).
For O=C(CC1(O)C(=O)N(Cc2ccccc2)c2ccc(Br)cc21)c1ccc(C(=O)NCC2CCC3(CC2)OOC2(CCCCC2)OO3)cc1 (stereo unspecified), the GI50 was 23.6 µM and the TGI was > 100 µM. With O=C(/C=C/c1ccc(OCc2ccccc2)c(OCc2ccccc2)c1)OCc1ccccc1 the TGI was > 100 µM. In the case of O=[N+]([O-])c1ccc(/C(=C\c2ccccc2)Cn2ccnc2)cc1, the TGI is reported as > 100 µM. In the case of Cn1cccc(C(=O)c2ccccc2)c1=O, the TGI is reported as > 100 µM. In the case of O=C(N/N=C\c1cc(Cl)ccc1O)c1ccncc1, the GI50 is reported as 3.54 µM and the TGI is reported as > 100 µM. C=C1C[C@H](O)[C@H]2C(C[Se]c3ccccc3)C(=O)O[C@@H]2[C@H]2[C@H](C)C(O)C[C@@H]12 (stereo partly specified) was tested, and the TGI was > 100 µM. In the case of CCOC(=O)/C=C\[C@H]1OC(C)(C)O[C@H]1[C@H](O)[C@H]1COC(C)(C)O1, the TGI is reported as > 100 µM. For Cn1ncc(NCCn2cnc3c2c(=O)n(C)c(=O)n3C)c(Cl)c1=O, the TGI was > 100 µM. With COc1ccc(C(=O)/C=C/c2ccc(OCc3ccc(Cl)cc3)cc2)cc1OC the GI50 was 196 µM and the TGI was > 1000 µM. In the case of C[C@@H]1CCC2[C@@H](C)[C@@H](OC3CCC(O)CC3)OC3O[C@@]4(C)CCC1[C@]32OO4 (stereo partly specified), the GI50 is reported as > 100 µM and the TGI is reported as > 100 µM. For CCOC(=O)[C@@]12C(C)=CC(=O)O[C@]1(C)C[C@H]2C#N, the TGI was > 100 µM. For CC(O)C(C(=O)O)N(CC1(O)OCC(O)C(O)C1O)N=O (stereo unspecified), the TGI was > 100 µM. With Cc1c(C(=N)N)oc2ccccc12 the TGI was > 100 µM. Clc1ccc(C2c3ccccc3-c3nc4ccccc4n32)cc1 (stereo unspecified) was tested, and the TGI was > 69.7 µM. In the case of CCCOc1cc2c(cc1O)CC[C@@H]1[C@@H]2CC[C@]2(C)[C@@H](O)CC[C@@H]12, the TGI is reported as > 57.5 µM. Cc1cc2c(C(C)C)c(O)c(O)c(C=NCC3CCCN4CCCCC34)c2cc1-c1cc2c(C=NCC3CCCN4CCCCC34)c(O)c(O)c(C(C)C)c2cc1C (stereo unspecified) showed a TGI of 32.4 µM. O=C1NC(=O)C2C1c1[nH]c3ccccc3c1C1CCCC12 (stereo unspecified) was tested, and the TGI was > 100 µM. In the case of CN(C)c1ccc(/C=C2\N=C(N/N=C/c3ccc(N(C)C)cc3)NC2=O)cc1, the TGI is reported as > 100 µM. Compound O=C1/C(=C/c2ccc(Cl)cc2)CCC/C1=C\c1ccc(O)c(CN2CCCCC2)c1 has a TGI of 49 µM. For CCN1CC2(COC)C(O)CC(OC)C34C5CC6(O)C(OC)C=C(C5C6OC(=O)c5ccc(OC)c(OC)c5)C(C(OC)C23)C14 (stereo unspecified), the TGI was > 7.5 µM. Nc1c(C(=O)Nc2ccccc2)sc2nc3c(cc12)C(O)CCC3 (stereo unspecified) was tested, and the GI50 was 0.513 µM and the TGI was > 100 µM. CC(O)C1(CNc2cc(Cl)nc(N)n2)CCCC1 (stereo unspecified) was tested, and the TGI was > 100 µM. In the case of CCOC(OC1=CCCC1)C(C)[Se]c1ccccc1 (stereo unspecified), the TGI is reported as > 100 µM. N#Cc1cc(-c2nc3cc(F)ccc3s2)ccc1N gave a TGI of 4.02 µM. O=C(Nc1ccc(Cl)cc1)Oc1ccc(C(=S)Nc2ccc(Br)cc2)cc1 was tested, and the TGI was 68.9 µM. For CCCCCCCCCC1CC(=O)Oc2cccc(O)c21 (stereo unspecified), the TGI was > 81.7 µM. O=S(=O)(/N=C(\NO)Nc1ccc(Cl)cc1)c1cc2ccccc2o1 showed a TGI of 56.3 µM. For COc1ccc2c(c1)CC[C@@H]1C2CC[C@]2(C)C(=O)N(CCN3CCCC3)C(=O)CC12 (stereo partly specified), the TGI was 65.6 µM. With CCOC(=O)C(C(N)=O)c1nc2cc([N+](=O)[O-])ccc2nc1/C=C(\O)c1ccccc1 (stereo unspecified) the TGI was 71.1 µM. O=P(Nc1ccccc1)(Oc1ccccc1)N1CCN(c2ccccc2)CC1 (stereo unspecified) was tested, and the TGI was > 100 µM. For N#CC1Sc2ccccc2-n2cccc21 (stereo unspecified), the TGI was > 100 µM. With c1ccc2c(c1)Sc1ccccc1N2CC1CN2CCC1CC2 (stereo unspecified) the TGI was 23.7 µM. With C=C1CC[C@@H]2C(C)(C)C(O)CCC2(C)C1COc1ccc2ccc(=O)oc2c1 (stereo partly specified) the TGI was 30.8 µM. Work on O=C(O)[C@@H]1CCCN1Cc1cc2cc3c(cc2c2cc(OCc4ccccc4)ccc12)OCO3 yielded a GI50 of 27 µM and a TGI of 85.3 µM. For COc1cccc(NC(=O)c2c(SC)c(C#N)c(=O)n(N)c2N)c1, the TGI was > 100 µM. In the case of N#CCCN1C/C(=C/c2ccccc2)C(=O)/C(=C/c2ccccc2)C1, the GI50 is reported as 15.7 µM and the TGI is reported as 29.8 µM. In the case of CO/C(N)=C(\C#N)N=Cc1ccccc1, the TGI is reported as > 100 µM. In the case of O=C1CCC(=O)N1CNc1cccc(NCN2C(=O)CCC2=O)c1, the TGI is reported as > 100 µM. In the case of CC(=O)O[C@H]1C(=O)[C@@]2(C)[C@H]([C@H](OC(=O)c3ccccc3)[C@]3(O)C[C@H](OC(=O)[C@H](O)[C@@H](NC(=O)c4ccoc4)c4ccccc4)C(C)=C1C3(C)C)[C@]1(OC(C)=O)CO[C@@H]1C[C@@H]2O, the TGI is reported as > 100 µM.
